# Test results published in PubChem BioAssay AID2546 (National Center for Advancing Translational Sciences (NCATS), 2010).
# The whole screen tested about 310,000 compounds, of which about 11,000 (3.5%) were called active. Inconclusive means that the source gave no clear call. Such entries were picked first, then a sample of the others. The call rests on the fitted dose curve; in most records, active means well fitted inhibition curve with a large enough effect; inconclusive means small, poorly fitted or top-dose-only effect, or effect the other way; inactive means flat fitted curve, though single readings scatter. Potencies of inconclusive entries are left out as doubtful fits.
# Assay: VP16 counterscreen qHTS for inhibitors of ROR gamma transcriptional activity;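 further: Gal4-VP16 expression switched on by copper sulfate through the metallothionein promoter; nearly all actives have a fitted effect of over 50% in size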
# Details: Drosophila S2 Gal4-VP16 UAS-luciferase, luminescence, 20 h; series mostly up to 53.6 µM
# Potency means the concentration at half of the fitted maximal effect; tags describe the fitted curve by direction and shape.
row,Compound,Potency
1,CCCCn1c(O)c(/C=C2\C=NN=C2c2ccccc2)sc1=S,"inconclusive [inhibitor, single point]"
2,COc1cccc(-c2n[nH]c(=S)n2Cc2ccco2)c1,"inconclusive [inhibitor, single point]"
3,c1ccc2c(c1)[nH]c1c(N3CCOCC3)ncnc12,"inconclusive [inhibitor, single point]"
4,COc1ccc(/C=C2\COc3ccccc3C2=O)cc1OC,"inconclusive [inhibitor, single point]"
5,NC(N)=NC(N)=Nc1ccc(SC(F)(F)F)cc1,inactive
6,CC(=O)c1ccc(N2CCc3ccccc3C2)c([N+](=O)[O-])c1,inactive
7,O=C(Nc1ccc(Cl)cc1)C1C2CCC3C(CCC21)C3(Cl)Cl (stereo not drawn),"inconclusive [inhibitor, single point]"
8,N#CSCC(=O)c1cccc2ccccc12,"inconclusive [inhibitor, single point]"
9,CCc1nnc(NC(=O)c2ccc(S(=O)(=O)N3CCCc4ccccc43)cc2)o1,active: 0.562 µM
10,COC(=O)C1=C(C)NC(C)=C(C(=O)OC)C1c1ccc(N(C)C)cc1,inactive
11,CNC(=O)C1=C(C)NC(=S)NC1c1cccs1 (stereo not drawn),inactive
12,Cc1ccc(SCCNC(=S)Nc2ccccc2)cc1,active: 1 µM
13,CCOc1ccc2[nH]cc(C(=O)NCCc3ccccc3)c(=O)c2c1,inactive
14,COc1ccc(NC2CC(=O)N(c3cccc(C)c3)C2=O)cc1 (stereo not drawn),"inconclusive [activator, partial curve, poor fit]"
15,COc1ccc(OC2C(=O)N(c3cc(C)ccc3C)C2c2ccc(OC)c(OC)c2)cc1 (stereo not drawn),inactive
16,CCc1nc(SCc2ccc(OC)c(Br)c2)n[nH]1,"inconclusive [activator, full curve]"
17,Cc1ccsc1/C=N/NC(=O)c1ccncc1,active: 7.08 µM
18,COc1ccc(C)cc1NS(=O)(=O)c1cn(C)c(=O)n(C)c1=O,inactive
19,O=C(Nc1ccc2c(c1)OCCO2)NC1CCCCC1,"inconclusive [inhibitor, single point]"
20,Cc1cc2oc(=O)cc(CN3CCN(S(=O)(=O)/C=C/c4ccccc4)CC3)c2cc1C,inactive
21,COc1ccc(OC)c(/C=C/C(=O)N2C(=O)c3cccc(N)c3C2=O)c1,"inconclusive [inhibitor, single point]"
22,COC(=O)N/N=C/c1c(C)c(C(=O)c2ccc(F)cc2)n2ccccc12,inactive
23,COc1ccc(-c2cccc(C3CC=CC4C3C(=O)N(Cc3ccccc3)C4c3ccc(OC)c(Cl)c3)c2)cc1 (stereo not drawn),"inconclusive [inhibitor, single point]"
24,COC(=O)c1ccccc1NC(=S)NC(=O)COc1ccc(C(C)C)cc1,"inconclusive [inhibitor, single point]"

row,Compound,Potency
1,CC(C)(C)c1ccc(C(=O)N2CCN(CCNC(=O)C(=O)NCc3ccccc3)CC2)cc1,inactive
2,O=C1C(=Cc2cccs2)C(=O)c2ccccc21,"inconclusive [inhibitor, partial curve, poor fit]"
3,CN(C)S(=O)(=O)Oc1cccc(C(=O)Nc2ccc(Cl)c(Cl)c2)c1,"inconclusive [inhibitor, single point]"
4,CCn1c(=O)n(CC)c2cc(NS(=O)(=O)c3ccccc3)ccc21,inactive
5,CCN1CCN(c2ccc(S(=O)(=O)N3CCCCC3)cc2NC(=O)Cc2c(Cl)cccc2Cl)CC1,"inconclusive [inhibitor, single point]"
6,Cc1nnc(SCC(=O)Nc2ncc(Cl)cc2Cl)n1Cc1ccccc1,"inconclusive [inhibitor, single point]"
7,CC(C(=O)Nc1ccc(Cl)cc1)c1ncc(C(F)(F)F)cc1Cl (stereo not drawn),"inconclusive [inhibitor, single point]"
8,CCCCCCn1c2c(c(=N)c3c1CCC3)CCC2,active: 11.2 µM
9,COc1ccc(OCc2n[nH]c(=S)o2)cc1,"inconclusive [inhibitor, partial curve]"
10,COc1cc2nc3c(c([Si](C)(C)C(C)(C)C)c2cc1OC)Cn1c-3cccc1=O,inactive
11,COc1ccc(Cn2c(N)c(C#N)c3nc4ccccc4nc32)cc1,"inconclusive [inhibitor, single point]"
12,Cc1ccc(NC(=O)c2cnccn2)cc1C,inactive
13,CC1=NN(C(=O)c2ccc(Br)cc2)C(O)(C(F)(F)OC(F)(F)F)C1 (stereo not drawn),active: 17.8 µM
14,O=C(N/N=C/c1ccc(Cl)cc1)c1ccc2c(c1)OCO2,inactive
15,COc1ccc(C(=O)Nc2nc3ccccc3[nH]2)cc1S(=O)(=O)N1CCCC1,"inconclusive [inhibitor, single point]"
16,O=C(Nc1nnc(-c2ccc3c(c2)CCCC3)o1)c1ccc(Cl)cc1Cl,active: 1.58 µM
17,CC(C)(C)NC(=S)NC(=O)C12CC3CCC(CC(C3)C1)C2,active: 4.47 µM
18,COc1ccc(-c2cn3nc(SCC(=O)NCC4CCCO4)ccc3n2)cc1 (stereo not drawn),"inconclusive [inhibitor, single point]"
19,CC[C@@]12C(=O)N(c3ccc(OC)cc3)C(=O)N1[C@H](c1ccc(Cl)cc1)[C@@H]1C(=O)N(C3CCCCC3)C(=O)[C@@H]12,"inconclusive [inhibitor, single point]"
20,O=[N+]([O-])c1ccc(CSc2nnc(SCc3ccccc3)s2)cc1,"inconclusive [activator, single point]"
21,Cc1cccc(/C=N/Nc2cc(N3CCOCC3)nc(N3CCOCC3)n2)c1,"inconclusive [inhibitor, partial curve]"
22,CC1(CCc2ccccc2)NC(=S)N(c2ccc(Cl)cc2)N1 (stereo not drawn),"inconclusive [inhibitor, single point]"
23,Clc1ccc(CON/C=N/c2ncnc3sccc23)cc1,"inconclusive [inhibitor, single point]"
24,O=c1c2ccccc2nc(/C=C/c2ccc(O)cc2)n1CCc1ccccc1,"inconclusive [inhibitor, partial curve]"
